# The other results are listed elsewhere or left out.
# B1: LCA (Lens culinaris), P02870 (protein)
# chain: MASLQTQMISFYLIFLSILLTTIFFFKVNSTETTSFSITKFSPDQKNLIFQGDGYTTKGKLTLTKAVKSTVGRALYSTPIHIWDRDTGNVANFVTSFTFVIDAPSSYNVADEFTFFIAPVDTKPQTGGGYLGVFNSKEYDKTSQTVAVEFDTFYNAAWDPSNKERHIGIDVNSIKSVNTKSWNLQNGERANVVIAFNAATNVLTVTLTYPNSLEEENVTSYTLNEVVPLKDVVPEWVRIGFSATTGAEFAAHEVHSWSFHSELGGTSSSKQAADA
# What was measured:
# Assay in all cases: glycan array binding signal (z-score within array); higher = stronger binding
# Settings in all cases: glycan notation: IUPAC condensed, linker removed
# [1] = biological target: Gal6S(b1-3)GlcNAc6S
# Outline: (§1)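 Glycan array data were curated from 3228 arrays in the Consortium for Functional Glycomics database and kept only where the protein sequence was available. Glycan names were converted to IUPAC-condensed notation, and columns mapping to the same glycan were averaged. The binding signal is a within-array Z-score, averaged across arrays of the same protein sequence at different concentrations or buffers and across linkers. Negative Z-scores can be read as non-binding.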
# [2] = biological target: Gal6S(b1-4)Glc
# Outline: as §1
# [3] = biological target: Gal6S(b1-4)Glc6S
# Outline: as §1
# [4] = biological target: Gal6S(b1-4)GlcNAc
# Outline: as §1
# [5] = biological target: Gal6S(b1-4)GlcNAc6S
# Outline: as §1
# [6] = biological target: GalNAc(a1-3)Gal
# Outline: as §1
# [7] = biological target: GalNAc(a1-3)GalNAc
# Outline: as §1
# [8] = biological target: GalNAc(a1-3)GalNAc(a1-3)Gal(a1-4)Gal(b1-4)GlcNAc
# Outline: as §1
# [9] = biological target: GalNAc(a1-3)GalNAc(b1-3)Gal(a1-4)Gal(b1-4)Glc
# Outline: as §1
# [10] = biological target: GalNAc(a1-3)GalNAc(b1-3)Gal(a1-4)Gal(b1-4)GlcNAc
# Outline: as §1
# [11] = biological target: GalNAc(b1-3)Gal
# Outline: as §1
# [12] = biological target: GalNAc(b1-3)Gal(a1-4)Gal(b1-4)GlcNAc
# Outline: as §1
# [13] = biological target: GalNAc(b1-3)Gal(a1-4)Gal(b1-4)GlcNAc(b1-3)Gal(b1-4)Glc
# Outline: as §1
# [14] = biological target: GalNAc(b1-3)Gal(a1-6)Gal(b1-4)Glc
# Outline: as §1
# [15] = biological target: GalNAc(b1-3)GalNAc
# Outline: as §1
# [16] = biological target: GalNAc(b1-3)GlcNAc
# Outline: as §1
# [17] = biological target: GalNAc(b1-4)Gal(b1-4)Glc
# Outline: as §1
# [18] = biological target: GalNAc(b1-4)GlcNAc
# Outline: as §1
# [19] = biological target: GalNAc(b1-4)GlcNAc(b1-2)Man
# Outline: as §1
# [20] = biological target: GalNAc(b1-4)GlcNAc(b1-2)Man(a1-3)[GalNAc(b1-4)GlcNAc(b1-2)Man(a1-6)]Man(b1-4)GlcNAc(b1-4)GlcNAc
# Outline: as §1
# [21] = biological target: GalNAc(b1-4)GlcNAc(b1-3)GalNAc(b1-4)GlcNAc
# Outline: as §1
# [22] = biological target: GalNAc(b1-4)GlcNAc6S
# Outline: as §1
# [23] = biological target: GalNAc(b1-6)GalNAc
# Outline: as §1
# [24] = biological target: GalNAc3S(b1-4)GlcNAc
# Outline: as §1
# [25] = biological target: GalNAc3S(b1-4)GlcNAc3S
# Outline: as §1
# [26] = biological target: GalNAc3S(b1-4)[Fuc(a1-3)]GlcNAc
# Outline: as §1
# [27] = biological target: GalNAc4S6S(b1-4)GlcNAc
# Outline: as §1
# [28] = biological target: GalNAc6S(b1-4)GlcNAc
# Outline: as §1
# [29] = biological target: Glc(a1-4)Glc
# Outline: as §1
# [30] = biological target: Glc(a1-4)Glc(a1-4)Glc(a1-4)Glc
# Outline: as §1
# [31] = biological target: Glc(a1-6)Glc(a1-6)Glc
# Outline: as §1
# [32] = biological target: Glc(a1-6)Glc(a1-6)Glc(a1-6)Glc
# Outline: as §1
# [33] = biological target: Glc(b1-4)Glc
# Outline: as §1
# [34] = biological target: Glc(b1-6)Glc
# Outline: as §1
# [35] = biological target: GlcA(b1-3)Gal
# Outline: as §1
# [36] = biological target: GlcA(b1-3)GlcNAc
# Outline: as §1
# [37] = biological target: GlcA(b1-6)Gal
# Outline: as §1
# [38] = biological target: GlcA3S(b1-3)Gal(b1-4)GlcNAc(b1-2)Man
# Outline: as §1
binder,measurement,setting,value
B1,glycan array binding signal (z-score),[1],-0.231
same,glycan array binding signal (z-score),[2],-0.22
same,glycan array binding signal (z-score),[3],-0.215
same,glycan array binding signal (z-score),[4],-0.22
same,glycan array binding signal (z-score),[5],-0.194
same,glycan array binding signal (z-score),[6],-0.204
same,glycan array binding signal (z-score),[7],-0.228
same,glycan array binding signal (z-score),[8],-0.208
same,glycan array binding signal (z-score),[9],-0.229
same,glycan array binding signal (z-score),[10],-0.185
same,glycan array binding signal (z-score),[11],-0.208
same,glycan array binding signal (z-score),[12],-0.203
same,glycan array binding signal (z-score),[13],-0.231
same,glycan array binding signal (z-score),[14],-0.199
same,glycan array binding signal (z-score),[15],-0.19
same,glycan array binding signal (z-score),[16],-0.23
same,glycan array binding signal (z-score),[17],-0.208
same,glycan array binding signal (z-score),[18],-0.18
same,glycan array binding signal (z-score),[19],-0.199
same,glycan array binding signal (z-score),[20],-0.144
same,glycan array binding signal (z-score),[21],-0.225
same,glycan array binding signal (z-score),[22],-0.236
same,glycan array binding signal (z-score),[23],-0.197
same,glycan array binding signal (z-score),[24],-0.237
same,glycan array binding signal (z-score),[25],-0.235
same,glycan array binding signal (z-score),[26],-0.233
same,glycan array binding signal (z-score),[27],-0.271
same,glycan array binding signal (z-score),[28],-0.276
same,glycan array binding signal (z-score),[29],-0.208
same,glycan array binding signal (z-score),[30],-0.207
same,glycan array binding signal (z-score),[31],-0.194
same,glycan array binding signal (z-score),[32],-0.227
same,glycan array binding signal (z-score),[33],-0.21
same,glycan array binding signal (z-score),[34],-0.176
same,glycan array binding signal (z-score),[35],-0.231
same,glycan array binding signal (z-score),[36],-0.217
same,glycan array binding signal (z-score),[37],-0.206
same,glycan array binding signal (z-score),[38],-0.249

# Source: the supplement of paper PMC8728848
